Source: US10196447B2, “Anti-vascular endothelial growth factor receptor 2 (VEGFR2) antibody and methods of use thereof for detecting VEGFR2 and for inhibiting tumor growth, tumor angiogenesis and/or inducing cancer cell cytotoxicity” (Academia Sinica, priority 2015, dated 2019)

What was measured:
HUVECs [1] = experiment: Tube formation assay (capillary structure formation on […]); assay type: cell-based, human; details: 40 ng/ml VEGF-A; compared with IMC-1121B
Description: (A) Capillary structure formation assays were performed using […]®-coated μ-Slides. HUVECs (4×10^4 cells per well) were incubated with 0.2% FBS and treated with 40 ng/ml VEGF-A, or 40 ng/ml VEGF-A together with NHIgG. […] Tubular structures were observed under phase contrast, and the relative sprout length (lower panel) and branching points (upper panel) were quantitatively measured with ImageJ software. All data were obtained from three independent experiments. […] Total protein was prepared from treated HUVECs and examined by Western blot analysis. α-tubulin was used as a loading control.
[…]® (BD Biosciences) was thawed at 4° C. overnight, and 10 μl […]® was added to each well of a pre-chilled μ-Slide Angiogenesis (Ibidi); the slide was then incubated at 37° C. for 15 minutes. Starved HUVECs (4×10^4 cells) were added to EBM-2 containing 0.2% serum with or without 40 ng/ml VEGF-A and anti-VEGFR2 antibodies. After 24 hours of incubation, endothelial cell tube formation was assessed with an OLYMPUS inverted microscope and digital camera (OLYMPUS, DP-12). Tubular lengths and branching points were quantitatively evaluated with ImageJ software. Inhibition percentage by antibodies was expressed as a percentage of that in VEGF-A-treated wells without competitor.

PC-3 xenografts = experiment: PC-3 human prostate cancer xenograft model; assay type: in vivo, NOD/SCID mice
Description: Procedures involving animals and their care were conducted according to the guidelines of the Academia Sinica Institutional Animal Care and Utilization Committee in compliance with national and international laws and policies. Non-obese diabetic-severe combined immunodeficiency (NOD/SCID) mice were purchased from the National Laboratory Animal Center (Taiwan). The human prostate cancer xenograft tumor model was developed by subcutaneously injecting 2×10^6 PC-3 cells into the dorsal flank of a six-week old male mouse. Animals were monitored daily for general health, and body weights were measured twice weekly. Tumor size was measured with slide calipers and calculated as length×width^2×0.52. […] An antibody dose of 20 mg/kg was injected twice a week for four weeks. For combination therapy, docetaxel (ScinoPharm Taiwan) was also intravenously administered at a dose of 5 mg/kg once a week for three weeks. At the end of the experiment, tumor tissue and visceral organs were removed and fixed for histological analysis.
For tumor blood vessel studies, samples were fixed in OCT. Frozen blocks were cut into 50 μm sections, and frozen tumor tissue sections were fixed with 1% paraformaldehyde, permeabilized with 0.1% TRITON™-X 100, blocked with normal horse serum (Vector), and then incubated for 1 hour at room temperature (RT) with a 1:100 dilution of the primary antibody (rat anti-mouse CD31 (PECAM-1); BD Bioscience). Subsequently, the tissue sections were incubated with Alexa 549-conjugated goat anti-rat antibody (Invitrogen) at room temperature for 1 hour. Nuclei were stained with DAPI, and sections were then mounted with fluorescent mounting solution. Immunofluorescent images were acquired using a Zeiss Axiovert 200M microscope. Positive areas of CD31 endothelial cells were quantified by pixel area counting and normalized with DAPI staining using ImageJ software under low power magnification.
The frozen tumor tissue sections were fixed with 1% paratbrmaldehyde and permeabilized with 0.1% TRITON™-X 100, before being incubated with terminal deoxynucleotidyltransferase-mediated dUTP nick end labeling reaction mixture (Roche Diagnostics) at 37° C. for 1 hour. After washing three times with PBS, the slides were incubated with FITC-anti-DIG antibody (1:2000) and DAPI (1:500). Slides were mounted with mounting solution and visualized under a fluorescent microscope. Slides were independently examined by three individuals. Areas with TUNEL-positive cells were quantified by pixel area counting, and normalized to DAPI staining using ImageJ software.

[2] = system: HL-60 leukemia xenografts; experiment: HL-60 leukemia xenograft model; assay type: in vivo, NSG mice
Description: For systemic leukemia engraftment studies, NOD/SCID/IL2Rγ−/− (NSG) mice were obtained from the Animal Center of the Institute of Cellular and Organismic Biology, Academia Sinica. Six-week old females were intravenously injected with 5×10^6 HL-60 cells through the tail vein. Animals were monitored daily for general health, and body weights were measured twice weekly. […] Mice were observed daily for signs of toxicity, and the survival times were recorded. At the end-point of treatment, the visceral organs of each mouse were removed and fixed for further histological examination.
Tumors and indicated organs were dissected from mice and fixed in 4% paraformaldehyde overnight. Fixation and processing of specimens were performed in accordance with standard procedures. The specimens were embedded in paraffin and cut into […] sections. Rehydrated paraffin-embedded tissue sections were stained with Mayer's hematoxylin solution (Wako) for 5 minutes and washed with water for 1-2 minutes. The slides were then stained with eosin solution (Wako) for 10 minutes. Tissues were visualized with Tissue Gnostics microscopes.

HUVECs [3] = experiment: HUVEC proliferation assay (MTT); assay type: cell-based, human
Description: A total of 1×10^4 HUVECs were seeded onto 96-well plates overnight. The cells were then starved in serum-free EBM-2 overnight. Subsequently, 8 μg/ml of the selected scFv, together with 40 ng/ml VEGF in low-serum EBM-2 (0.2%), was added to the wells, and then incubated for 48 hours. Cell proliferation was assessed using MTT reagent (Invitrogen), according to the manufacturer's instructions.

murine VEGFR2 protein = murine VEGFR2 protein (Mus musculus, UniProt P35918, DEL223-227); experiment: Cross-reactivity with murine VEGFR2; assay type: binding
HUVECs [4] = experiment: HUVEC migration (wound-healing assay); assay type: cell-based, human
PC-3 cells = experiment: VEGF-A-induced cellular activity in PC-3 cells (Transwell invasion, colony formation, wound healing); assay type: cell-based, human; details: 100 ng/ml VEGF-A; 10 μg/ml antibody
Description: (A) Transwell assays were carried out to examine the invasion capacity of PC-3 cells subjected to the indicated treatments. Upper panel: Giemsa staining of invasive cells. 100× magnification; n=3 in each group; scale bar, 150 μm. […] The plate was incubated for 7 days to allow colony formation. Cell colonies were visualized by crystal violet staining. The relative number of colonies was calculated in each well after elution of crystal violet solution. n=3 in each group. (C) Wound healing assay. […] Images were taken after 0, 16, and 36 hours of incubation. Scale bar, 150 μm. n=3 in each group. Error bar, SE.

VEGFR2-Fc = biological target: T1, VEGFR2-Fc (Homo sapiens, UniProt P35968); experiment: Binding kinetics by surface plasmon resonance (BIACORE T100); details: ratio of Kd values
T1 construct: purchased R&D Systems
Description: The affinity and kinetics of anti-VEGFR2 antibodies were measured by surface plasmon resonance in a BIACORE T100™ (GE healthcare). VEGFR2-Fc protein was coupled to an EDC- and NHS-activated CM5 sensor chip in a BIACORE flow cell, and then blocked with ethanolamine according to the manufacturer's directions. Associated and dissociated phases were monitored under continuous flow of 30 μl/min, using antibody concentrations ranging from 0.1 to 100 nM for 5 min. Regeneration was performed by injection of regenerate buffer (0.2 M NaCl, 10 mM glycine, pH 2.7). To determine binding constants, the sensorgrams were fit globally to a sample 1:1 interaction model using BIAevaluation software (GE healthcare).

VEGFR2 signaling pathway = experiment: Western blot of VEGF-A-induced phosphorylation in HUVECs; assay type: cell-based, human; details: 100 nM antibody
Description: Western blots were pertbrmed using standard protocols, as previously described. The primary antibodies were purchased from Cell Signaling Technology and used at a 1,000-fold dilution for protein detection; the antibodies used are as follows: anti-VEGFR2 (clone 55B11), anti-phospho-VEGFR2 (Tyr1175; clone 19A10), anti-FAK, anti-phospho-FAK (Tyr397; cloneD20B1), anti-p42/44 MAPK, anti-phospho-p42/44 MAPK (Thr202/Tyr204; cloneD13.14.4E), anti-Akt, and anti-phospho-Akt (Ser473).

[5] = system: VEGFR2 on the cell surface of HUVEC; experiment: Flow cytometry binding to HUVECs; assay type: cell-based, human; details: FACS; antibody 0.1 μg/ml
Description: About 1×10^4 HUVEC were incubated with the selected anti-VEGFR2 phage clones at 4° C. for 1 hour in FACS buffer (PBS containing 1% fetal bovine serum). After the cells were washed with FACS buffer, they were first incubated with mouse anti-M13 phage Ab for 1 hr at 4° C., and then with R-phycoerythrin-conjugated goat anti-mouse IgG (Jackson Immuno Research) for 30 min at 4° C. Flow cytometry was performed with a FACSCantoII (BD), and emission fluorescence intensity was measured with FACS Diva software (BD) to quantitatively compare binding affinities.

[6] = end of treatment, compared with IMC-1121B
[7] = 20 mg/kg i.v. twice weekly from day 3

B1: anti-VEGFR2-AF hAb: fully human antibody: R2S12-AF scFv coding sequences engineered into a human IgG1 backbone (antibody)
heavy: QVNLRESGGGLVKPGGSLRLSCAASGFTFGSYTMNWVRQAPGKGLEWVASITSGSSYIFYTDSVKGRFTISRDNSRSSLFLQMNSLRAEDTAIYYCARGSASAFDIWGQGTMVTVSS[in this place human IgG1 constant region]
light: DIQMTQSPSSLSASVGDRVTITCKASDDIINYLNWYQQKPGEAPKLLIYDASILETGVPSRFSGSGSGTDFTFTISSLQPEDIATYYCQQLDDIPITFGGGTKLEIK
modifications: left off: a dimerising Fc or GST
HUVECs [1]
  suppression of VEGF-A-triggered capillary-like structures (tubule length and branch point number): more effective than IMC-1121B
PC-3 xenografts; by day 38, antibody 20 mg/kg i.v. twice a week, docetaxel 5 mg/kg i.v. once a week
  tumor growth reduction: 52%
PC-3 xenografts; compared to the NHIgG group or docetaxel alone
  changes in body weight during the treatment period: no significant changes
PC-3 xenografts; [6]
  enhancement of cancer cell apoptosis (TUNEL assay): superior to IMC-1121B
  reduction of tumor vascular density (anti-CD31 staining): superior to IMC-1121B
PC-3 xenografts; in combination with docetaxel
  docetaxel-induced toxicity (body weight as surrogate): do not enhance
[2]; [7]
  median survival: 53 days
  survival time: 70 days
[2]; compared with the IMC-1121B-treated group
  average ovarian volume: significantly smaller
[2]; log-rank test
  Kaplan-Meier survival compared with the IMC-1121B group: significantly prolonged
[2]; n=9
  histopathological phenotype of ovaries (H&E): fewer blood vessels, and retained some primary oocytes
[2]; n=9 per group
  lymph nodes with leukemia infiltration: one of nine
HUVECs [3]
  VEGF-A-induced HUVEC proliferation: suppressed
Murine VEGFR2 protein
  cross-reaction / binding to murine VEGFR2: not
HUVECs [4]
  VEGF-A-induced HUVEC migration: suppressed
PC-3 cells
  VEGF-A-induced cellular activities of PC-3 cells: suppressed
VEGFR2-Fc
  increase in binding affinity to VEGFR2 over parental clone anti-VEGFR2 hAb: 8 fold
VEGFR2 signaling pathway
  FAK phosphorylation: only marginally reduced
VEGFR2 signaling pathway; 10 min
  VEGF-A-induced phosphorylation of VEGFR-2 and downstream signaling molecules (Akt, MAPK, FAK): efficiently diminished
VEGFR2 signaling pathway; compared with IMC-1121B
  levels of phosphorylated VEGFR2, Akt, and MAPK: lower than those in IMC-1121B-treated group
[5]
  binding of antibody to cell-surface VEGFR2 on HUVECs: stronger binding than IMC-1121B
